Results are given in words; binding and its absence hold for the method and conditions named. Binding seen in cells or lysates may run through a third protein. Some results given as binding are weak or reduced against the parent protein; the word gives no strength. Tags and fused reporters may be left off the sequences shown.

Amino acid sequences for entries named in this document (tags omitted). A change or cut given only in a name is not applied to a line headed by its entry.
UniProt P46824: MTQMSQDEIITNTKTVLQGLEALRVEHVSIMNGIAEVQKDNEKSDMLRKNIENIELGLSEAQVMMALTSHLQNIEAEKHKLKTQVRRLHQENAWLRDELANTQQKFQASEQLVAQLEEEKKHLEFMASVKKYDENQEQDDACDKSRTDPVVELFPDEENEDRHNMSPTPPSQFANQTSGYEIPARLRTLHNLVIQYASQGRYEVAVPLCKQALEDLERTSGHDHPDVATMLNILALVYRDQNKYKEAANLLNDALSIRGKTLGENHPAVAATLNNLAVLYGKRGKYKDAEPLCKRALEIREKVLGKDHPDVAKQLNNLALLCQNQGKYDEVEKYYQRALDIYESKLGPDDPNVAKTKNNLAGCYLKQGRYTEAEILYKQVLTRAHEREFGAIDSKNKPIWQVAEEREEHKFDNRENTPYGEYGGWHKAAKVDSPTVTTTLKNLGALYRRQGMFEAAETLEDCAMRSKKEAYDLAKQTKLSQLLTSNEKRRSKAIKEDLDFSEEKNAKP
UniProt O18333: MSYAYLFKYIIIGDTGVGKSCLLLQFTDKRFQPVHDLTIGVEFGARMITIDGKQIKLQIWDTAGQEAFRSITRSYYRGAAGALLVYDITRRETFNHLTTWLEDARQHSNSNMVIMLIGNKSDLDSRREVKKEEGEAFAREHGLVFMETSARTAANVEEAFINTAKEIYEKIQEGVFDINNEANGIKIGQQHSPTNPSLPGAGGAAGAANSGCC

This is an account of results in PMC12772503.

Assay [1] deals with T1, myc-Syd-N2 (Syd^1-529) (Drosophila) (UniProt Q9GQF1).
T1 sequence: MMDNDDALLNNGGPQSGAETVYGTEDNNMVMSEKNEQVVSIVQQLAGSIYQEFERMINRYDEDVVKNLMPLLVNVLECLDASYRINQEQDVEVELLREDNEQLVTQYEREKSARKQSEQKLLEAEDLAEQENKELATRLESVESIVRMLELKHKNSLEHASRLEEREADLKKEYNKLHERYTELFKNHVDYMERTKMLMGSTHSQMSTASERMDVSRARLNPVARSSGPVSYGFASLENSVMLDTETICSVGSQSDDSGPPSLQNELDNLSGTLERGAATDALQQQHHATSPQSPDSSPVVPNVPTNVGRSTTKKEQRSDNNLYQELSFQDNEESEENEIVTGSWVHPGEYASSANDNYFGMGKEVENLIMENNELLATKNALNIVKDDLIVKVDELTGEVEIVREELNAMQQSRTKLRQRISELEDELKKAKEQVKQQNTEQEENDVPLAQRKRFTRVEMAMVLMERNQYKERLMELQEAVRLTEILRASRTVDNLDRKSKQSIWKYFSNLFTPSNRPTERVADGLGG
In words: co-IP; lysates (1.0 mg/ml) of transfected HEK293 cells on Pierce anti-HA magnetic beads, 2 h, 4°C; 20 mM HEPES pH 7.4, 130 mM NaCl, 2 mM MgCl2, 0.1% saponin; 60 uM GppNHp with Rab2(wt) and Rab2[Q65L] but not Rab2[S20N]; eluted with 100 mM NaOH or HA peptide; Western blot; in Fig. S2 E cells treated with 2 uM MLi-2 for 2 h or co-transfected with LRRK2^G2019S. Background: Immunoblotting shows a protein as a band on a membrane.

Assay [2] has as its target T2, HA-Syd-N2 (Syd^1-529) (Drosophila) (UniProt Q9GQF1).
T2 sequence: T1 sequence
The assay is described as above.

In assay [3] the target is T3, HA-Syd-N4 (Syd^1-485) (Drosophila) (UniProt Q9GQF1).
T3 sequence: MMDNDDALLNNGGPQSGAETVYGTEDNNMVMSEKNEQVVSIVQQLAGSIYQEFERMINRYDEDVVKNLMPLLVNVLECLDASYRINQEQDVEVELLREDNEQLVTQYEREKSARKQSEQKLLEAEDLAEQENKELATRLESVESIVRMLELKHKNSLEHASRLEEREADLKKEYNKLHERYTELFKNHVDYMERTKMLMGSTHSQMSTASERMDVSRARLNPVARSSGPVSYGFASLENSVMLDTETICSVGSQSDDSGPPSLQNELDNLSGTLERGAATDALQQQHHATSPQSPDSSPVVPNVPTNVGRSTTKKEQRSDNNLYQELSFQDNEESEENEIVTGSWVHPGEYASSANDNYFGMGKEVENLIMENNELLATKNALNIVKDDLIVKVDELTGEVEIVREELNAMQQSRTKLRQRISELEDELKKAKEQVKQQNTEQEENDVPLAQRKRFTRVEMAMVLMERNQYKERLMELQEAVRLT
The description is as above.

Assay [4] addresses T1, myc-Syd-N2 (Syd^1-529) (Drosophila). Put plainly: co-IP; lysates (1.0 mg/ml) of transfected HEK293 cells on Pierce anti-c-Myc magnetic beads, 2 h, 4°C; 20 mM HEPES pH 7.4, 130 mM NaCl, 2 mM MgCl2, 0.1% saponin, 60 uM GppNHp; washes with 0.25% then 0.1% saponin; eluted by heating in SDS-PAGE loading buffer; Western blot.
The target of assay [5] is T4, myc-tagged dNischarin (Drosophila) (UniProt Q7K490).
T4 sequence: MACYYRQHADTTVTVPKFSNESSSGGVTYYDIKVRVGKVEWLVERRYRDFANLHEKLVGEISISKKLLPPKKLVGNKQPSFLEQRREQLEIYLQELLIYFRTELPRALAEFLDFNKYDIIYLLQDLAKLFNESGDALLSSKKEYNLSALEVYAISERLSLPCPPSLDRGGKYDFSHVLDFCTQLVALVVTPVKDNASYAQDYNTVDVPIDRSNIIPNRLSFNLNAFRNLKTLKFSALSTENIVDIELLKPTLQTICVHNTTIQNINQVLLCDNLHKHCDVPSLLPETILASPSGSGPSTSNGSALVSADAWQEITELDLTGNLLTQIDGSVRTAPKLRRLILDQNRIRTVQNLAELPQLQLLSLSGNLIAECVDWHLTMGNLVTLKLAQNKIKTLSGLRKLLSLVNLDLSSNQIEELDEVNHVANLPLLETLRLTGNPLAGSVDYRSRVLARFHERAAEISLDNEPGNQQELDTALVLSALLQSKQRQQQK
The assay is described as above.

Assay [6] deals with T5, myc-tagged full-length Syd (Drosophila) (UniProt Q9GQF1).
T5 sequence: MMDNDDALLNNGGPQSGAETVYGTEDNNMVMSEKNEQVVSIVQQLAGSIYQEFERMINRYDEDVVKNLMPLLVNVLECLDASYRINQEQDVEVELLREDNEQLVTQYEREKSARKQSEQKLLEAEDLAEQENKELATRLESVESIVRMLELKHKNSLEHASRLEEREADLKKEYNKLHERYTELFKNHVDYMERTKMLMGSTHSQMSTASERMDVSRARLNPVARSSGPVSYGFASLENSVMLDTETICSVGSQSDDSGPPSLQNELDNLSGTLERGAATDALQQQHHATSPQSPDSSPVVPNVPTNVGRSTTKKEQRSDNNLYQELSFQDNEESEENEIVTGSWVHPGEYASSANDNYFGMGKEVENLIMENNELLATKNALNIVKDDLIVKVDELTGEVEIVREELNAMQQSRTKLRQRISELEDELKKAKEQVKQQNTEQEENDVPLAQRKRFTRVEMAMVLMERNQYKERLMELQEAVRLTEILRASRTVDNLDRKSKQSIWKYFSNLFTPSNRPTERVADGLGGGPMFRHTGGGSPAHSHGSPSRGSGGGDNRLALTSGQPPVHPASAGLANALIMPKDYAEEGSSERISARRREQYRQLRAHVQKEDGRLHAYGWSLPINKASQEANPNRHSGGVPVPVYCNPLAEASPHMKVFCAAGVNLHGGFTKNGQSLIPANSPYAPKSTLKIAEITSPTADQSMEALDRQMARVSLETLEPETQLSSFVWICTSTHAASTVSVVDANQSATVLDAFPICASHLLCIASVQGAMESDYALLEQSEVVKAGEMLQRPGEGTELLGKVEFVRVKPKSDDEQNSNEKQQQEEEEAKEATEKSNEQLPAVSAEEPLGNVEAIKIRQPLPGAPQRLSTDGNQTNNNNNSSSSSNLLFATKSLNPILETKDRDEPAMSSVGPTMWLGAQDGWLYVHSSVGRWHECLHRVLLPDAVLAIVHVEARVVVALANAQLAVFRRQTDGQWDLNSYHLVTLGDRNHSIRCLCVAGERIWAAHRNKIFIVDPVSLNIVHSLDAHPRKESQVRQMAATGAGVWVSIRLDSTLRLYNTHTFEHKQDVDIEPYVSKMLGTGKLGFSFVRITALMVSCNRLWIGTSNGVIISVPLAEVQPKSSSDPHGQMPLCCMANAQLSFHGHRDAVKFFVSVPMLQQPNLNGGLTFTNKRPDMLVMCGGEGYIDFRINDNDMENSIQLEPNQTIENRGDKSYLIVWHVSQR
Described as above.

Turning to “FLAG-tagged Klc (from UniProt P46824 1-508)”, the binding entry in assay [1] was “binds”.
For “myc-Rab2^Q65L (from UniProt O18333 1-213)”, the figures for the binding entry in assay [2] and in assay [3] were “binds” and “no binding”, respectively.
As for “HA-Rab2^Q65L (from UniProt O18333 1-213)”, the results for the binding result in assay [4], in assay [5] and in assay [6] were “binds”, “binds weakly” and “binds”, respectively.
